PubChem BioAssay AID493208 (National Center for Advancing Translational Sciences (NCATS), 2011)
Screen size: about 44,000 compounds; about 340 (0.77%) were called active. Inconclusive results (about 5%) are left out. Calls come from the whole dose curve; as a rule, active = well fitted inhibition curve with a large enough effect; inconclusive = small, poorly fitted or top-dose-only effect; inactive = flat fitted curve, though single readings scatter. Some of the results follow.

Experiment: Acumen qHTS Assay for Inhibitors of the mTORC1 Signaling Pathway in MEF (Tsc2-/-, p53-/-) Cells: Sytravon;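 note: plate controls were DMSO for no effect and rapamycin for full effect; nearly all actives have a fitted effect of over 50% in size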
Details: phospho-rpS6 immunofluorescence/PI, 24 h; series mostly up to 38.3 µM; activity change, negative = inhibition: at the top concentration
Description: NIH Molecular Libraries Probe Production Centers Network [MLPCN] NIH Chemical Genomics Center [NCGC] MLPCN Grant: NS059428-01 Assay Submitter (PI): Blenis, John; Hoffman, Greg; Harvard University NCGC Assay Overview: The mammalian target of rapamycin (mTOR) is an intracellular serine/threonine kinase Aberrant regulation of mTOR signaling plays a causative role in a number of human diseases, including cancer, benign tumors such as lymphangioleiomyomatosis (LAM) and Tuberous Sclerosis Complex (TSC), and metabolic diseases such as diabetes and obesity. This project aims to identify inhibitors of ribosomal protein S6 (rpS6) phosphorylation. The phosphorylation of rpS6 is a key event downstream of mTOR activation. The assay uses a phospho-specific antibody of phospho-rpS6 to detect inhibitors of mTOR activation. Mutations in the Tsc1 and Tsc2 genes are the underlying genetic lesions responsible for TSC, causing constitutive activation of the mTORC1 pathway and leading to profound effects on cell metabolism. Aberrant metabolism in cancer has recently received significant attention as a target to develop therapeutic agents in the treatment of cancer.1 As Tsc2-/- cells have lost the ability to respond to energy and growth factor deprivation, these cells are unable to properly down regulate cellular biosynthetic processes in response to metabolic stress, and are thus extremely sensitive to glucose deprivation-induced death.2 A central goal of this project is to explore the unique cell survival and metabolic properties of cells with Tsc1 or Tsc2 by screening for compounds that selectively target the Tsc2-/- MEFs by screening both Tsc2-/- and WT MEF cell lines. We hope to better understand these aspects of TSC physiology in order to exploit them for therapeutic benefit.
NCGC Acumen Assay Protocol Summary: For quantitative high throughput analysis of mTORC1 signaling, we developed a cell-based assay for immuno-fluorescence based detection of rpS6 phosphorylation on the Acumen Explorer that will be used a platform for the primary small molecule screen. Mouse embryonic fibroblasts (MEFs) are cultured in 1536-well plates using DMEM + 10% FBS. Twenty-four hrs after plating, test compounds (solubilized in DMSO) are delivered and incubated with the cells for 24 hrs at 37 degree Celsius. Following the incubation, media with compound is aspirated and the cells are fixed in 4% paraformaldehyde (PFA) containing PBS + 0.2% TX-100. Next, PFA is aspirated, cells are washed two times with PBS plus 0.2% TX-100 and the cells are blocked for 1 hr at room temperature (blocking buffer: LiCOR Blocking Buffer plus 0.2% TX-100). […] Cells are washed two times with PBS plus 0.2% TX-100, and stained with 10 uM propidium iodide (PI) for 20-25 minutes for cell number measurement (1:500 dilution of Hoescht staining is also added for IN Cell imaging). The plates are scanned on the Acumen Explorer laser scanning instrument (TTP Labtech) using the 488nm laser for simultaneous excitation of the Alexa-488 and PI. […] The normalized phospho-S6 staining is calculated as the ratio of the integrated Alexa 488 intensity divided by the integrated PI intensity for the single concentration rapamycin control (7.5 nM) and DMSO columns. […] Inhibition of the pathway is defined based on the normalized phospho-S6 intensity in rapamycin treated cells. Active cells are defined as those with a normalized phospho-S6 staining above this threshold, and each treatment is reported as the % positive cells in the well, where thresholds are defined by selecting wells with the highest and lowest signal and differentiating between the % non-active and % active populations. In addition to the pathway specific phospho-S6 endpoint, the number of PI stained cells from the Acumen is recorded as a measure of cell viability. The primary screen was performed with a MEF cell line in a defined genetic background, Tsc2-/-, p53-/- cell line stably transfected with an empty vector control (Tsc2-/- MEF).

Activity change, negative = inhibition, inactive:
O=C(CSc1nc2c(oc3ccccc32)c(=O)n1-c1ccccc1)Nc1ccc(F)c(Cl)c1 0.768%
CCOC(=O)c1c(NC(C)=O)c2c3c(sc2n1Cc1cc(C)ccc1C)CCCC3 2.36%
CCOc1ccccc1NC(=O)Cn1c(=O)n(Cc2ccco2)c(=O)c2sc3ccccc3c21 0.44%
COc1ccccc1NS(=O)(=O)c1cn(C)c(C)n1 4.14%
COc1ccc(N2CC(NC(=O)COc3cccc(C)c3)CC2=O)cc1OC (centres undefined) -0.584%
Cc1ccc(C)c(N2CCN(C(=O)Cn3nc(C)c4sc5ccccc5c4c3=O)CC2)c1 -8.96%
COc1ccccc1N(CC(=O)Nc1ccccc1C(F)(F)F)S(=O)(=O)c1ccc(C)cc1 2.17%
CCC(O)c1nc2ccccc2n1Cc1cc(C)ccc1C (centres undefined) 0.766%
CCOc1ccc(NC(=O)CSc2nc3ccsc3c(=O)n2CCC(C)C)cc1 -7.71%
COc1ccc(OC)c(NC(=O)C2CCN(S(=O)(=O)c3ccc4c(c3)CC(C)N4C(C)=O)CC2)c1 (centres undefined) 0.353%
Cc1ccc(NC(=O)C2CCN(S(=O)(=O)c3ccc4c(c3)CCCC(=O)N4)CC2)cc1N(C)C -8.51%
COc1ccc(OC)c(NC(=O)C(C)n2c(=O)c(-c3ccccc3NC(C)=O)nc3ccccc32)c1 (centres undefined) -3.3%
O=C(CC1Sc2ccccc2NC1=O)Nc1cccc(C(F)(F)F)c1 (centres undefined) -2.22%
COc1ccc(-c2nc(CSCC(=O)NCCC(C)C)c(C)o2)cc1OC -3.47%
Cc1cc(Nc2cccc(Cl)c2)nc2ccc(NC(=O)COc3ccc(Cl)cc3)cc12 -22.4%
CC(C)c1ccc(NC(=O)c2cc3c(=O)[nH]c4ccccc4c3n2C)cc1 -15.9%
O=C(CSc1cn(CC(=O)N2CCCCC2)c2ccccc12)NCc1ccccc1Cl -4.6%
CCN1C(=O)c2ccccc2S(=O)(=O)c2ccc(C(=O)NCc3ccccc3OC)cc21 0.777%
O=C(CN1C(=O)c2cccnc2Sc2ccccc21)Nc1cc(F)ccc1F -5.35%
Cc1ccc(-n2nc(C)c3c(C(=O)NCCc4ccc(S(N)(=O)=O)cc4)cc(C)nc32)cc1 3.96%
CCC1CN(C(=O)N2CCC(C(=O)NCc3cccc(F)c3)CC2)c2cc(C)ccc2O1 (centres undefined) 9.45%
CCCCN(C)CCCNC(=O)c1cn(CC)c2ccc(S(=O)(=O)N3CCc4ccccc4C3)cc2c1=O -6.17%
COc1ccc(NC(=O)Nc2cc(C(=O)NCc3ccc(C)cc3)ccc2N2CCCC2)cc1 3.71%
COc1ccccc1CNC(=O)c1cc(S(=O)(=O)N2CCCC(C)C2)cn1C (centres undefined) 7.25%
CCc1ccc(NC(=O)CC2C(=O)N(c3ccc(F)cc3)C(=O)N2Cc2ccc(F)cc2)cc1 (centres undefined) -5.5%
Cc1ccc(-n2nc(C)c3c(C(F)(F)F)cc(-c4cccnc4)nc32)cc1C 2.3%
Cc1ccc2oc(-c3ccc(NC(=O)c4oc5ccc(Cl)cc5c4C)cc3)nc2c1 -1.87%
Cc1cccc(NC(=O)Cn2c(SCC(=O)NCc3ccccc3)nc3ccccc32)c1C 0%
O=C(c1cnn(-c2ccc(F)cc2)c1-n1cccc1)N1CCN(c2ccccc2)CC1 0.202%
CCOc1ccc(-c2cn3nc(CC(C)C)sc3n2)cc1 2.04%
Cc1ccc(NC(=O)c2ccc(C)c(S(=O)(=O)N3CCCCCC3)c2)cc1 1.14%
COc1ccc(C)cc1NS(=O)(=O)c1ccc2oc(=O)c3ncn(C)c3c2c1 -2%
CCN(CC)c1ccc(C2C(C(N)=O)=C(C)Nc3nc(SCc4ccccc4Cl)nn32)cc1 (centres undefined) -13.2%
CCOC(=O)c1ccc(N=C2SC(C(=O)Nc3ccccc3)CC(=O)N2C)cc1 (centres undefined) 3.3%
O=C(NCCSCc1ccccc1)C1CCN(S(=O)(=O)Cc2ccccc2)CC1 0.256%
COc1ccc(CNC(=O)C2(c3cccs3)CCOCC2)cc1 1.14%
Cc1ccccc1-c1nc(CN2CCC(C(=O)NC(C)C)CC2)c(C)o1 -10%
CCCCc1nn2c(=O)cc(COC(=O)CNC(=O)COc3ccc(C)cc3)nc2s1 -12.9%
CCN(CC)S(=O)(=O)c1cccc(C(=O)Nc2ccccc2C(=O)Nc2ccc(OC)cc2)c1 -2.42%
COc1ccc(N2CCN(CC(O)COc3c(OC)cccc3OC)CC2)cc1 (centres undefined) -8.96%
CCOc1ccc(NC(=O)c2c(NCc3cccs3)sc3c2CCC(C)C3)cc1 (centres undefined) -0.431%
CCC1CN(C(=O)NCc2cccc(OC)c2)c2ccccc2O1 (centres undefined) 5.73%
COc1ccc(CCNC(=O)c2cc3c(=O)n(C)c4cc(Cl)ccc4c3s2)cc1OC -6.16%
COc1ccc(-c2[nH]c(-c3ccccc3)nc2SCC(=O)NC2CCCC2)cc1 -9.24%
CCN1C(=O)c2ccccc2Sc2ccc(NC(=O)Nc3ccc(Br)c(C)c3)cc21 -11.1%
COc1ccc(Nc2nc(N)nc(CSc3nc4ccccc4s3)n2)cc1 -6.81%
O=S1(=O)c2ccccc2N(Cc2ccccc2Cl)c2ccccc21 0.31%
Cc1ccc(-c2ccc(=O)n(CC(=O)NC(C)c3ccccc3)n2)cc1 (centres undefined) 14.5%
Cc1ccccc1NC(=O)Cn1c(=O)n(CCCCC(=O)NCc2ccccc2Cl)c(=O)c2ccccc21 -6.54%
